Laboratory results reported in PubChem BioAssay AID1476 (National Center for Advancing Translational Sciences (NCATS), 2009).
The whole screen tested about 200,000 compounds, of which about 4,500 (2.2%) were called active. The shares of active, inactive and inconclusive entries below differ from those in the screen. Calls follow the shape of the dose curve; as a rule, active = well fitted inhibition curve with a large enough effect; inconclusive = small, poorly fitted or top-dose-only effect, or effect the other way; inactive = flat fitted curve, though single readings scatter. Potencies of inconclusive entries are doubtful fits and often do not repeat.

target: Cruzipain (Trypanosoma cruzi) (UniProt P25779); assay: qHTS Assay for Promiscuous and Specific Inhibitors of Cruzain (without detergent); conditions: purified cruzain, Z-FR-AMC fluorescence, no detergent; also: nearly all actives have a fitted effect of over 40% in size;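 as to max response, negative = inhibition: plate controls were enzyme without inhibitor for no effect and buffer without enzyme for full effect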
In short: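 Detergent-free condition (0.00005% Triton X-100) in acetate buffer pH 5.5 with DTT. 1.5 nM enzyme and compound were pre-mixed 15 min, then 2 uM Z-FR-AMC substrate added; reaction progress from fluorescence change between first and third reads (60 s).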
Potency is read from the fitted curve at half-maximal effect; tags tell the direction and shape of the fitted curve.

Chain of UniProt P25779 (P25779 whole entry, looked up): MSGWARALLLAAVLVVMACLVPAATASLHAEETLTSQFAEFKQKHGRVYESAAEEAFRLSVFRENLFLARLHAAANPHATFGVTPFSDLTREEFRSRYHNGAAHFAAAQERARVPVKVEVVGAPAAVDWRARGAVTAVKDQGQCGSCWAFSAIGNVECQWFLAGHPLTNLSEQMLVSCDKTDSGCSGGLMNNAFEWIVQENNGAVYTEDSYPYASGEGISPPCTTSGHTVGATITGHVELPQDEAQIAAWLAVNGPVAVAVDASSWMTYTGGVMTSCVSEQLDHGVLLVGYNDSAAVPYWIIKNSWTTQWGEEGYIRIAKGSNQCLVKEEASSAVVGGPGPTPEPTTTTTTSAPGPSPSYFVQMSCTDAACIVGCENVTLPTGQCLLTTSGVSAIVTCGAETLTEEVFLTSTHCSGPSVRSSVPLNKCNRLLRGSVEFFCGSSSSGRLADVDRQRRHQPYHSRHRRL

SMILES	Potency	max response, negative = inhibition
COc1ccc(-n2nc(C(=O)Nc3ccc4c(c3)OCO4)c3ccccc3c2=O)c(OC)c1	inconclusive: 25.1 µM [activator, partial curve]	–
COC(=O)c1ccc(C23CC4(C2)[C@H](CN(Cc2ccc(-c5ccccc5)cc2)[C@@H]4c2ccccc2)C3c2ccccc2)cc1 (stereo partly specified)	active: 7.94 µM	–
Cn1c(=O)c2c(nc(N3CCCCCC3)n2CC(O)COc2ccc(Cl)cc2)n(C)c1=O (stereo unspecified)	inconclusive: 31.6 µM [activator, single point]	–
Cc1c(CNC2CCC(C)CC2)c(C(=O)O)c(C)n1Cc1ccc(Cl)cc1 (stereo unspecified)	–	inactive: 16.7%
CC1(C)CC(N=C=O)CC(C)(CN=C=O)C1 (stereo unspecified)	–	inactive: -9.1%
CCc1cccc2c(C(=O)COC(=O)c3ccc([N+](=O)[O-])s3)c[nH]c12	inconclusive: 39.8 µM [inhibitor, single point]	–
CC(C)CCNC(=O)CC1C(=O)N(Cc2ccccc2)C(C)c2nc3ccccc3n21 (stereo unspecified)	inconclusive: 39.8 µM [inhibitor, single point]	–
COc1cccc(N2C(=O)C(CC(=O)Nc3ccccc3)N(CCc3sccc3C)C2=O)c1 (stereo unspecified)	–	inactive: 7.8%
CCOc1ccc(N(C)S(=O)(=O)c2cc(-c3cc(C)no3)ccc2OC)cc1	inconclusive: 39.8 µM [activator, single point]	–
COc1ccc(C(=O)Nc2nc(-c3ccc([N+](=O)[O-])cc3)c(-c3ccc(OC)cc3)s2)cc1	active: 10 µM	–
CC(=O)NS(=O)(=O)c1ccc(N=c2ssc3c2-c2cc(C)ccc2NC3(C)C)cc1	inconclusive: 39.8 µM [activator, single point]	–
O=c1c2ccccc2nc(CSc2nnnn2-c2ccccc2)n1-c1ccccc1Cl	inconclusive: 39.8 µM [inhibitor, single point]	–
O=C(/C=C/c1cccs1)c1ccc(NC(=O)c2cccc(Br)c2)cc1	active: 15.8 µM	–
Clc1ccc(-c2nnc3sc(-c4ccc(Br)o4)nn23)cc1	inconclusive: 39.8 µM [inhibitor, single point]	–
CCCOc1cc(N(CC)CC)ccc1/C=C(/C#N)c1nc2ccc(C)cc2[nH]1	active: 20 µM	–
COc1ccccc1N1CCN(C(=O)c2sc3nc(-c4ccccc4)cn3c2C)CC1	inconclusive: 25.1 µM [activator, single point]	–
COc1ccc(Oc2ncc3nc(-c4cccs4)c(=O)n(Cc4cccc(OC)c4)c3n2)cc1	active: 12.6 µM	–
Cc1ccccc1C(=O)Nc1ccccc1OCc1cc(=O)n2ccccc2n1	–	inactive: -19%
Nc1nc2n(n1)C(c1ccco1)CC(c1ccccc1)N2 (stereo unspecified)	–	inactive: -20.9%
COc1cccc(-c2cc(NCc3ccc(OC)cc3OC)ncn2)c1	–	inactive: -1.32%
Cc1cccc(Cn2cc(/C=C(/C#N)C(=O)Nc3cccc(Cl)c3)c3ccccc32)c1	active: 3.16 µM	–

SMILES	Potency	max response, negative = inhibition
Cc1[nH]c2c(C)cccc2c1CCNC(=O)c1ccc2c(c1[N+](=O)[O-])C(=O)c1ccccc1C2=O	active: 7.94 µM	–
COc1ccc2[nH]cc(CCNc3ncnc4ccc(-c5ccc6c(c5)OCO6)cc34)c2c1	active: 31.6 µM	–
CCn1c2ccccc2c2cc(NC(=O)c3cc(OC)cc(OC)c3)ccc21	inconclusive: 31.6 µM [inhibitor, single point]	–
O=C(N/N=C/C=C/c1ccccc1)c1n[nH]c2c1CCC2	inconclusive: 39.8 µM [inhibitor, single point]	–
Cc1cccc(N2CCN(C(=O)Cn3ncc4c3-c3cc(C)ccc3OC4)CC2C)c1 (stereo unspecified)	inconclusive: 39.8 µM [activator, single point]	–
Cc1c(/C=C2\SC(=O)N(CC(=O)Nc3ccc4c(c3)OCO4)C2=O)c2ccccc2n1C	inconclusive: 39.8 µM [inhibitor, single point]	–
CCn1c(SCC(=O)c2ccc(Cl)cc2)nnc1-c1cccs1	inconclusive: 0.126 µM [inhibitor, full curve, poor fit]	–
Cc1ccc(-c2nnc(Nc3ccc(Br)cc3)c3ccccc23)cc1S(=O)(=O)NCC1CCCO1 (stereo unspecified)	inconclusive: 15.8 µM [inhibitor, single point]	–
COC(=O)c1ccc(OCC2c3cc(OC)c(OC)cc3CCN2C(=O)c2ccccc2C)cc1 (stereo unspecified)	inconclusive: 39.8 µM [activator, single point]	–
Cc1cc(C(=O)CSc2nnc(N)s2)c(C)n1CCc1ccc(Cl)cc1	inconclusive: 39.8 µM [inhibitor, single point]	–
N#Cc1nc(-c2ccc(COc3ccccc3)o2)oc1NCc1cccnc1	inconclusive: 39.8 µM [activator, single point]	–
Cc1ccc(-c2cc(C(=O)OCC(=O)Nc3ncc(C(F)(F)F)cc3Cl)c3ccccc3n2)cc1	inconclusive: 20 µM [inhibitor, partial curve]	–
O=C(/C=C/c1ccc(Cl)cc1Cl)N(Cc1ccccc1)C1CCS(=O)(=O)C1 (stereo unspecified)	inconclusive: 39.8 µM [activator, single point]	–
CCOCCCn1c(C)nc2c(c1=O)c1nc3ccccc3nc1n2CCC1=CCCCC1	inconclusive: 31.6 µM [activator, single point]	–
COc1cc(CNC(=O)c2sc3ncccc3c2-n2cccc2)cc(OC)c1OC	inconclusive: 31.6 µM [activator, single point]	–
Cc1cccc(C(=O)Nc2nnc(S(=O)(=O)N(C)Cc3ccc(Cl)cc3)s2)c1	inconclusive: 39.8 µM [inhibitor, single point]	–
CN(Cc1ccccc1)C(=O)C1CCN(S(=O)(=O)c2ccc3c(c2)oc(=O)n3C)CC1	inconclusive: 39.8 µM [activator, single point]	–
Cc1ccc2c(=O)c3ccccc3n(CCCN)c2c1C	–	inactive: -3.69%
Cc1cccc(-n2c(CNC(=O)COc3ccccc3)nnc2SCC(=O)Nc2nccs2)c1	inconclusive: 31.6 µM [activator, single point]	–
O=c1c2ccccc2nnn1CSc1nnc2sc3ccccc3n12	inconclusive: 31.6 µM [inhibitor, partial curve]	–
